Assay results: ChEMBL document CHEMBL1157539, “Thousands of chemical starting points for antimalarial lead identification” (Nature, 2010)
Whole data set: some 13,000 compounds, median “IFI” near 4, cut for the highest 2% near 17. The list shows a part of the results.

Test: GSK_TCMDC: Inhibition Frequency Index (IFI). The number of non-kinase HTS assays where a compound showed > 50 % inhibition, expressed as a percentage of the number of such assays in which the compound was tested (-0 is zero)
Type: functional
In the case of `Cc1noc(C)c1-c1ccc2c(Nc3nccc4ccccc34)c(C(N)=O)cnc2c1`, the IFI is reported as 16.2%. Work on `COc1ccc(N2CCN(CCCCNC(=O)c3ccc(NC(=O)c4cc(C(F)(F)F)cc(C(F)(F)F)c4)cc3)CC2)c(OC)c1` yielded an IFI of 3.54%. `CCc1sc(N2CCN(C)CC2)nc1C(=O)Nc1ccc(F)cc1C(F)(F)F` showed an IFI of 3.85%. Work on `O=C(NCCN1CCCc2ccccc21)C1CCN(c2nc(-c3ccc(Cl)cc3)no2)CC1` yielded an IFI of 3.03%. `O=c1[nH]c2c(cc1CNC1CCCCC1)c(-c1cccc(F)c1)nn2-c1ccccc1` showed an IFI of 6.41%. Work on `COc1ccc(NC(=O)N2CCN(CCCCCNC(=O)/C=C/c3ccc(C(F)(F)F)cc3)CC2)cc1Cl` yielded an IFI of 7.92%. With `CC(CN1CCN(C)CC1)C(=O)Nc1ccc(-c2ccc(-c3nc4cc(C(F)(F)F)ccc4[nH]3)cc2)cc1` (stereo not given) the IFI was 6.36%. `C=CCn1c(Sc2ccc(C#N)c([N+](=O)[O-])c2)nnc1-c1ccc(Cl)cc1` showed an IFI of 4.23%. `O=C(Nc1cc2cc(-c3ccc(CN4CCCCC4)cc3)ccc2n2cnnc12)NC1CCCC1` showed an IFI of 16.2%. Work on `CC(C)(CN)c1cc(-c2ccc(Cl)c(O)c2)c(-c2ccncc2)o1` yielded an IFI of 3.57%. In the case of `O=C(/C=C/c1ccc(Cl)c(Cl)c1)NCCCCCN1CCC(NC(=O)NC2CCCC2)CC1`, the IFI is reported as 0.66%. Compound `FC(F)(F)c1cccc(CCNc2nccc(NCc3ccc(Cl)cc3Cl)n2)c1` has an IFI of 25%. Compound `O=c1cc(NCCCNCc2cc3c(Cl)cccc3s2)[nH]c2ccccc12` has an IFI of 5.22%. For `COc1ccc2nccc(N3C[C@H]4C[C@@H]3CN4CCNCc3ccc4c(n3)NC(=O)CS4)c2n1`, the IFI was 3.03%. With `Cc1[nH]c(C)c(-c2ccc(OCc3cc(F)cc(F)c3)nc2)c(=O)c1Br` the IFI was 7.89%. In the case of `Cc1ccc(N2CCc3c(-c4cc5cccnc5nc4C)cc(C)nc32)c(Cl)c1`, the IFI is reported as 7.69%. Work on `COc1ccc(OC)c(-c2ccc(=O)n(CC(=O)Nc3cccc4ccccc34)n2)c1` yielded an IFI of 1.52%. `O=C(CCNc1ccnc(NCCc2ccccc2)n1)Nc1ccccc1` gave an IFI of 15.8%. Compound `Cc1cccc(CNc2ncc(C)c(NCCC(=O)Nc3ccccc3)n2)c1` has an IFI of 0%. Work on `c1cc(CNC2Cc3ccc(-c4cccs4)cc3C2)cc(-n2ccnc2)c1` (stereo not given) yielded an IFI of 7.69%. Work on `CCOc1ccc2[nH]c(C)cc(=NN=Cc3cccc(F)c3)c2c1` yielded an IFI of 0.76%. `COc1ccc(-c2cccc(NC(=O)c3cccc(C#N)c3)c2)cc1CNC(C)C` showed an IFI of 1.98%. For `CC1(C)NC(N)=NC(=N)N1OCCCc1c(Cl)cccc1Cl`, the IFI was 7.46%. For `COC(=O)c1ccc(NC(=O)c2ccc(CCN3CCC(c4nc(COCC(F)(F)F)c(-c5ccc(F)cc5)o4)CC3)cc2)cc1`, the IFI was -0%. `O=C(NOCCCCOc1ccc(Cl)c(Cl)c1)c1ccccc1` showed an IFI of 2.82%.
